# Test results: publication PMC4336329 (PLoS ONE, 2015)
# Among all 310,000 compounds or so, about 14,000 (4.5%) showed an effect of 50% or more. The effect is printed as a negative number. Some of the results follow.
# Biological target: human ether-à-go-go-related gene (hERG) potassium channel (human, UniProt Q12809)
# Assay: primary screen, population patch clamp on CHO cells stably expressing hERG
# 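Also: peak tail current of the secondary pulse compared with the same well before compound.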
# Sequence of human ether-à-go-go-related gene (hERG) potassium channel (Q12809 whole entry, looked up): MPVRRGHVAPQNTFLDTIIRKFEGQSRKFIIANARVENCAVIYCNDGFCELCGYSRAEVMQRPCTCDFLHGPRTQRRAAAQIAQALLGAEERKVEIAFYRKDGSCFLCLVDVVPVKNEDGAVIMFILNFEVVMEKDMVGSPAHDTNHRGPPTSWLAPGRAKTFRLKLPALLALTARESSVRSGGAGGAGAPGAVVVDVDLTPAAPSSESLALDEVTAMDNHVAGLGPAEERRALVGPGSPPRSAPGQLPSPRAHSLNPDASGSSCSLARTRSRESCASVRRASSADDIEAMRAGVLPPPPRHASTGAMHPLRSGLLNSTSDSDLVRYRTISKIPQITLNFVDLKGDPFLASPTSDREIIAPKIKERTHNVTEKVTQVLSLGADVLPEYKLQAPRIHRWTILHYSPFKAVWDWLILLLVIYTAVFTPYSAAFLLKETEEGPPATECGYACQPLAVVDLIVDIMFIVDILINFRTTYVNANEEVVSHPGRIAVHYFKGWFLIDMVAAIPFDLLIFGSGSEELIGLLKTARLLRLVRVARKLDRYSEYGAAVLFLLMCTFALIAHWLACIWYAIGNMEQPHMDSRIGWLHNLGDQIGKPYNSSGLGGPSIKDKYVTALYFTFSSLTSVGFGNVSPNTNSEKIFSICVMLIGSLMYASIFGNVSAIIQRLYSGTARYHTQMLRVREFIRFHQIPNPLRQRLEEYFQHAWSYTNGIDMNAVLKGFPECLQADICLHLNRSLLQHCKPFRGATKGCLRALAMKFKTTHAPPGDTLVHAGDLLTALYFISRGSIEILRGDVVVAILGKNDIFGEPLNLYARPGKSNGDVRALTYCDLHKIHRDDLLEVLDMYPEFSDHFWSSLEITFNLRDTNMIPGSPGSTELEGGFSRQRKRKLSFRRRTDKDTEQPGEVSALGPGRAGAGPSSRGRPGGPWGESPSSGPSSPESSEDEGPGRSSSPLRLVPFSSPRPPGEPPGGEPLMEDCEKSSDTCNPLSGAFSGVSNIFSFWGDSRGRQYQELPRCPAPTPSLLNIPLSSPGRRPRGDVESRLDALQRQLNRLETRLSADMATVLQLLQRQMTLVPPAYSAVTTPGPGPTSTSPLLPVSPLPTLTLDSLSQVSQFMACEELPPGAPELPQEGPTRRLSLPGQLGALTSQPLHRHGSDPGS
row,Structure (SMILES),"hERG current change (%, negative = inhibition) at 10uM"
1,COc1ccc(-c2cc(=O)oc3cc(OC(C)C(=O)Nc4ccc(CN5CCOCC5)cc4)ccc23)cc1 (stereo not drawn),-0.104%
2,CNc1c([N+](=O)[O-])cnn1-c1ccc(Cl)cc1,0.0173%
3,Cc1ccc(NC(=O)C(OC(=O)c2ccc(F)cc2)c2ccccc2)cc1Cl (stereo not drawn),20.5%
4,CC1CCCN(C(=O)CSCC(=O)Nc2nc(-c3cccs3)cs2)C1 (stereo not drawn),-31.1%
5,Cc1cc(-c2ccc(N3CCOCC3)cc2)nc2ccccc12.Cl,3.53%
6,CN1CCN(c2ccc(NC(=S)NC(=O)c3cccc4c(Br)cccc34)cc2)CC1,16.2%
7,Cc1ccc2nc(C3CCCN(C(=S)Nc4cccc(C)c4C)C3)[nH]c2c1 (stereo not drawn),1.17%
8,O=C1c2ccccc2C(=Nc2ccccc2)C1c1cccc(Br)c1 (stereo not drawn),12.9%
9,COC(=O)CC1C(=O)NCCN1C(=S)Nc1cc(C)cc(C)c1 (stereo not drawn),9.16%
10,Oc1ccc(-c2cccc(-c3ccc(O)cc3)c2)cc1,3.27%
11,O=C(CSc1nnc(C2COc3ccccc3O2)o1)N1CCOCC1 (stereo not drawn),2.95%
12,Cc1ccc(NC(=O)c2ccc(N3C(=O)C4CC=C(Cl)CC4C3=O)cc2)cc1 (stereo not drawn),12.9%
13,c1nnc(NC2=NCCC2)s1,11.9%
14,CC(=O)NCC(=O)NNC1CC(=O)N(c2cccc(Cl)c2)C1=O (stereo not drawn),16.9%
15,Cn1c(=O)n(C)c2cc(/C=N/NC(=O)c3cccc(Br)c3)ccc21,6.71%
16,c1ccc(-n2cnnc2SCc2cn3cccnc3n2)cc1,5.32%
17,O=C(Cn1c(=O)oc2cc(S(=O)(=O)N3CCCC3)ccc21)Nc1ccc(C(F)(F)F)cc1,-0.00062%
18,Cc1ccc2c(c1)c1nc3ccccc3nc1n2CCN1CCOCC1,-62.8%
19,CCOC(=O)c1cn2nc(OP(=S)(OCC)OCC)cc2nc1C,-40.3%
20,Cc1ccc(-n2nnc(-c3cc4ccccc4nc3Cl)n2)cc1,24.9%
21,O=Cc1cc2cc3c(cc2nc1Cl)OCCO3,17.9%
22,O=C1OC(c2cccs2)=N/C1=C\c1ccc(-c2cccc(Cl)c2)o1,5.16%
23,CCCC(=O)Nc1ccc2c(c1)nc(CCNC(=O)c1ccccc1)n2C,3.53%

row,Structure (SMILES),"hERG current change (%, negative = inhibition) at 10uM"
1,CN(C)[C@@H](CO)c1nnc([C@H](CCC(=O)O)NC(=O)C2CCNCC2)o1.Cl,-1.23%
2,CCOC(=O)C1CCCN(C2CC(=O)N(c3ccc(C)c(C)c3)C2=O)C1 (stereo not drawn),10.6%
3,NC(=O)c1cccn1Cc1cccc(Cl)c1,-13%
4,Cc1ccc(C)c(NC(=S)N/N=C2\CCc3ccccc32)c1,9.03%
5,O=C(Nc1cccnc1)c1ccccc1Oc1ccccc1,-6.55%
6,CCC(C)NC(=O)COC(=O)c1cccnc1Nc1ccccc1F (stereo not drawn),8.21%
7,Cn1c(=O)n(C)c2cc(NC(=O)c3cc4ccccc4o3)ccc21,-18.8%
8,O=[N+]([O-])c1cc(/C=N/O)ccc1Sc1ccccc1,13.7%
9,CCC(NS(=O)(=O)c1cnn(CC)c1)c1ccccc1 (stereo not drawn),21.5%
10,OCCN1CCN(C(=S)Nc2ccccc2)CC1,7.11%
11,CCOc1cccc(/C=C/c2ccc3cccc(O)c3n2)c1O,13.9%
12,CCn1c(C(C#N)/C(=N\S(=O)(=O)c2cccs2)c2ccccc2)nc2ccccc21 (stereo not drawn),6.74%
13,CCn1c(SCC(=O)Nc2nc3ccc(OC)cc3s2)nc2c1c(=O)n(C)c(=O)n2C,-44.8%
14,CSc1nc(O)c(C(c2ccccc2)c2c(O)nc(SC)[nH]c2=O)c(=O)[nH]1,17.4%
15,O=C(CCC(=O)OCC(=O)c1ccccc1)Nc1cccc(Cl)c1,21.5%
16,CCc1c(C)nc2ncnn2c1NCCc1ccc(Cl)cc1,-21.2%
17,CS(=O)(=O)c1[nH]nc(-c2cccc(Cl)c2)c1C#N,8.81%
18,CCc1ccc(OCCOCC(O)CNC(C)CC)cc1.Cl (stereo not drawn),-35.3%
19,C=CCn1c(-c2cccn(Cc3ccc(Cl)cc3)c2=O)n[nH]c1=S,8.22%
20,CCOc1ccccc1NC1=C(Cl)C(=O)N(c2ccc(OC)cc2)C1=O,-10.4%
21,Oc1ccc(C=NC2CCCCC2)c(O)c1,13.3%
22,CC(C)=CCC1=C(OCC(=O)O)C(=O)c2ccccc2C1=O,5.27%
23,Cc1ccc(CNc2ncnc3cc(Cl)ccc23)o1,-5.19%

row,Structure (SMILES),"hERG current change (%, negative = inhibition) at 10uM"
1,COc1cccc(NC(=O)COc2coc(CN3CCN(c4ccccc4)CC3)cc2=O)c1,3.45%
2,CS(=O)(=O)N(CC(=O)Nc1ccc2c(c1)OCO2)c1ccccc1,2.33%
3,O=C(Nc1cccc(Cl)c1)NC1CCS(=O)(=O)C1 (stereo not drawn),-0.236%
4,COc1ccccc1CN(Cc1nc2ccccc2c(=O)[nH]1)S(=O)(=O)c1ccc(C)cc1,4.38%
5,O=C(O)CSc1nccc2ccccc12,14.7%
6,CC(Sc1nc(N)cc(=O)[nH]1)C(=O)NC1CCCCC1 (stereo not drawn),-4%
7,N#CC1=C(N)C(C#N)(C#N)[C@H](c2ccoc2)[C@H]2CN(Cc3ccccc3)CC=C12,-32.4%
8,Brc1cc(Br)cc(CN2CCSCC2)c1,31.2%
9,O=C(COC(=O)c1cccc(C(=O)OCC(=O)NCc2ccc(F)cc2)n1)NCc1ccc(F)cc1,-15.5%
10,O=c1oc2c3c4c(cc2c(C(F)(F)F)c1CCN1CCOCC1)CCCN4CCC3,-5%
11,CC1=CC(C)(C)n2c(O)c(N=NC(N)=S)c3c(C)c(C)cc1c32,12.1%
12,CCOc1ccc(C(=O)OC2CC3CCC(C2)N3C)cc1.Cl (stereo not drawn),-30%
13,C=CCNC(=O)Nc1ccc(OCC)cc1,-2.74%
14,CCN(C(=O)CN1C(=O)c2ccc([N+](=O)[O-])cc2C1=O)C1CCS(=O)(=O)C1 (stereo not drawn),13.8%
15,CN(c1ccccc1)S(=O)(=O)c1ccc(C(=O)Nc2nnc(-c3ccco3)o2)cc1,6.87%
16,O=C(CC1NCCc2ccccc21)Nc1ccc(Cl)cc1 (stereo not drawn),-46.1%
17,CCOc1ccc(/C=N/OCC(=O)NC(c2ccccc2)c2ccccc2)cc1,-33.4%
18,Cc1cc(C)nc(Nc2ccccc2Br)n1,12.1%
19,Cc1cccc(C(CC(=O)O)NC(=O)C(F)(F)F)c1 (stereo not drawn),12.2%
20,Cn1c(=O)[nH]c(=O)c2c1nc(SCCN1CCOCC1)n2Cc1ccccc1,-54.4%
21,COc1cccc(N2C(=NC(=O)COc3ccccc3)SC3CS(=O)(=O)CC32)c1 (stereo not drawn),9.3%
22,COc1ccc(CNC(=O)CCn2c(=O)[nH]c3ccccc3c2=O)cc1,5.79%
23,Cc1ccccc1NC(=O)COc1ccc2oc(=O)cc(C)c2c1,-5.56%

row,Structure (SMILES),"hERG current change (%, negative = inhibition) at 10uM"
1,O=C(NNC(=S)Nc1ccccc1Cl)c1ccccc1Cl,18.8%
2,Cc1c(O)ccc2c(-c3ccccc3)cc(=O)oc12,2.02%
3,COc1ccc(-n2c(C)nc3cc(C(=O)N4CCOCC4)ccc32)cc1,-14.1%
4,CC(C)(C)c1cc(N2CCOCC2)n2ncc(-c3ccc(Cl)cc3)c2n1,19.2%
5,O=C(CCc1c[nH]c2ccccc12)OCc1cccc([N+](=O)[O-])c1,13.1%
6,O=C(CCS(=O)(=O)c1ccc2c(c1)NC(=O)CS2)NCc1ccccc1Cl,-11.4%
7,O=C(CCCn1c(SCC(=O)Nc2ccccc2Cl)nc2ccccc2c1=O)NCC1CCCO1 (stereo not drawn),-48.9%
8,COc1ccc(C(C)=O)cc1COc1ccc(F)cc1,-0.00842%
9,O=C(N/N=C/c1ccoc1)c1ccc([N+](=O)[O-])cc1,7.19%
10,CC(C)(C)[C@@H]1CCC(=O)N(CC[C@H](N=[N+]=[N-])c2ccccc2)CC1,-21.6%
11,CC(C)CN(C(=O)c1ccc(F)cc1F)c1c(N)n(CC(C)C)c(=O)[nH]c1=O,8.07%
12,Cn1ccnc1SCC(=O)Nc1ccc2ccccc2c1,-12.1%
13,CCOc1ccc(NC(=O)CCSc2nc3c(c(CC)c2C#N)C(=O)CC(C)(C)C3)cc1,2.77%
14,O=C(O)/C(=C\c1cccs1)c1ccccc1,0.00478%
15,O=S(=O)(/C=C/c1ccccc1)N1CCN(c2nc(-c3ccccc3)nc3ccccc23)CC1,-9.29%
16,CCc1noc(C)c1C(=O)Nc1cc(Cl)ccc1-n1cncn1,-13%
17,N=C1/C(=C/c2ccc(OCc3ccccc3F)cc2)C(=O)N=C2SC(CC(=O)N3CCOCC3)=NN12,10.8%
18,COc1ccc(C2=NCCn3nc4ccccc4c32)cc1,-9.98%
19,CCCCOC(=O)c1ccc(NC(=O)COC(=O)C2CSC3(C)CCC(=O)N23)cc1 (stereo not drawn),-6.92%
20,COCCNC(=O)c1cc(-c2ccccc2)nn1CC1CC(c2cccnc2)=NO1 (stereo not drawn),2.9%
21,CCN(C(=O)C1CCCO1)c1ccccc1 (stereo not drawn),12.8%
